The whole screen tested about 120,000 compounds, of which about 5,300 (4.4%) were called active. The shares of active, inactive and inconclusive entries below differ from those in the screen. Calls come from the whole dose curve; as a rule, active = well fitted inhibition curve with a large enough effect; inconclusive = small, poorly fitted or top-dose-only effect; inactive = no such curve, though single readings can be large or run the other way. Potencies of inconclusive entries are doubtful fits and often do not repeat.
assay: qHTS Primary assay for Inhibitors of Plasmodium falciparum Dd2 growth in vitro; note: nearly all actives have a fitted effect of over 65% in size;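 for activity, negative = inhibition: plate controls were DMSO vehicle for no effect and reference drug for full effect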; conditions: P. falciparum Dd2 growth, SYBR Green, 72 h; activity, negative = inhibition: at 28.9 µM (top of the series) unless noted; series mostly up to 28.9 µM
Procedure, shortened: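 Infected erythrocytes (Dd2, 0.3% parasitemia, 2.5% hematocrit final) are added to compound in RPMI-1640/Albumax II medium, grown 72 h at 37C in low oxygen, then lysed with saponin/Triton-X containing SYBR Green and read by fluorescence.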
Potency is the fitted concentration of half-maximal effect; tags give direction and shape of the fitted curve.

Question: With `COCCOC1CN(C2CCN(Cc3ccncc3)CC2)C12CCCCC2` (configuration not stated) as the compound, how does the “outcome” value read?
Answer: inactive

Question: Which Potency does the source give for `Cc1cccc2sc(N(Cc3cccnc3)C(=O)CCOc3ccccc3)nc12` here?
Answer: inconclusive: 10 µM [inhibitor, single point]

Question: For `COc1cc2nc(SCC(=O)Nc3ccccc3C)n3nc(CCn4c(C)nc5ccccc54)nc3c2cc1OC`, which Potency is on record?
Answer: inconclusive: 7.94 µM [inhibitor, partial curve, poor fit]

Question: With `NS(=O)(=O)c1ccc(F)c(C(=O)NC2CCc3[nH]ncc3C2)c1` (configuration not stated) as the compound, how does the “activity, negative = inhibition” value read?
Answer: inactive: -12.3%

Question: For `CO[C@H]1C(=O)N(C(C)C)[C@H]1C1CCN(CC2CCCCC2)CC1`, which Potency is on record?
Answer: inconclusive: 17.8 µM [inhibitor, single point]

Question: With `CCC1=C(C(=O)OC)C(c2ccc(C(C)C)cc2)N2C(CC(=O)N3CCOCC3)=CSC2=N1` (configuration not stated) as the compound, how does the Potency read?
Answer: inconclusive: 2.51 µM [inhibitor, partial curve, poor fit]

Question: Which “activity, negative = inhibition” value does the source give for `CNC(=O)[C@@H]1CN(S(C)(=O)=O)C[C@H]1COC` here?
Answer: inactive: -1.33%

Question: For `CCOc1ccc(C(=O)OCc2cc(=O)n3nc(C4CC4)sc3n2)cc1`, which “activity, negative = inhibition” value is on record?
Answer: inactive: -6.51%

Question: Which “activity, negative = inhibition” value does the source give for `CCOc1ccc(S(=O)(=O)c2cn(CC)c3ccc(F)cc3c2=O)cc1` here?
Answer: inactive: -1.79%

Question: With `CC1=C[C@@H](CNC(=O)CCC(=O)O)[C@H](C(C)C)C[C@H]1Cc1nc2ccc(Cl)cc2[nH]1` as the compound, how does the Potency read?
Answer: inconclusive: 20 µM [inhibitor, single point]

Question: For `COc1cccc(NC(=O)[C@@H]2C[C@@H](c3ccc(F)cc3)N(Cc3ccccc3)C2)c1`, which Potency is on record?
Answer: inconclusive: 5.62 µM [inhibitor, single point]

Question: Which Potency does the source give for `COc1ccccc1C1C(C(=O)N2CCCCC2)=C(C)Nc2nc3ccccc3n21` (configuration not stated) here?
Answer: inconclusive: 3.98 µM [inhibitor, partial curve, poor fit]

Question: With `Cc1cccc(NC(=O)Nc2ccc(C)n(CC(=O)NCCN3CCCC3)c2=O)c1` as the compound, how does the Potency read?
Answer: inconclusive: 10 µM [inhibitor, single point]

Question: For `CCC(=O)N1CCc2ccc(OCc3nc(C(=O)NCCOC)co3)cc2C1c1ccc(C)cc1` (configuration not stated), which Potency is on record?
Answer: inconclusive: 2.82 µM [inhibitor, full curve]

Question: For `COCCN1C(=O)Cc2ccccc2C1C(=O)NCc1cccc(Cl)c1` (configuration not stated), which Potency is on record?
Answer: inconclusive: 17.8 µM [inhibitor, single point]

Question: With `CN1CC2(CCN(Cc3cc(C#N)n(C)c3)CC2)CC(c2ccccc2)C1=O` (configuration not stated) as the compound, how does the Potency read?
Answer: inconclusive: 8.91 µM [inhibitor, partial curve, poor fit]

Question: Which “activity, negative = inhibition” value does the source give for `COc1ccc(-c2ccc3nc(-c4ccc(Cl)cc4)oc3c2)c(OC)c1OC` here?
Answer: inactive: -7.87%

Question: With `COc1ccccc1C(=O)N1CCC(Oc2ncccc2C(=O)N2CCCCC2)C1` (configuration not stated) as the compound, how does the “activity, negative = inhibition” value read?
Answer: inactive: -10.1%

Question: With `O=C(C1COc2ccccc2O1)N(Cc1cccnc1)c1nc2c(F)cccc2s1` (configuration not stated) as the compound, how does the “activity, negative = inhibition” value read?
Answer: inactive: -0.741%

Question: Which Potency does the source give for `CC1CCN(S(=O)(=O)c2cc(C(=O)N3CCN(c4cccc(Cl)c4)CC3)n(C)c2)CC1` here?
Answer: inconclusive: 17.8 µM [inhibitor, single point]

Question: Which Potency does the source give for `COc1ccc2c(c1)-c1nc(NC(=O)c3cccc(Br)c3)sc1CC2` here?
Answer: active: 10 µM

Question: Which Potency does the source give for `CCCN(C(=O)CCc1nc(-c2ccc(C)cc2)no1)c1ccc(OCC)cc1` here?
Answer: inconclusive: 10 µM [inhibitor, single point]

Question: Which “outcome” value does the source give for `O=C(Oc1ccccc1)N1CCC(Oc2cnc3c(ccn3-c3cncnc3)c2)CC1` here?
Answer: inactive [at 44.1 µM]

Question: Which Potency does the source give for `O=C(NC1CCCCC1)N1CCC(N2C(=O)C3(CCCCC3)C2c2ccncc2)CC1` (configuration not stated) here?
Answer: active: 5.01 µM

Question: Which “activity, negative = inhibition” value does the source give for `CN1CC(=O)N(C2CCNC2)Cc2c1ncnc2N1CC[C@H](N(C)C)C1` (some centres not stated) here?
Answer: inactive: -3.77%

Question: For `Cc1ccc(CNC(=O)c2ccc(Cn3c(SCc4ccc(F)cc4)nc4cccnc43)cc2)o1`, which Potency is on record?
Answer: active: 11.2 µM

Question: For `O=c1n(Cc2ccc(F)cc2)c2ccccc2c2nc(-c3ccccc3)nn12`, which Potency is on record?
Answer: inconclusive: 15.8 µM [inhibitor, single point]

Question: For `COc1ccc(C(=O)N2CCc3nc(C(C)C)nc(-c4ccc(O)cc4)c3C2)cc1`, which Potency is on record?
Answer: active: 8.91 µM

Question: With `Cc1nc(C)c(C(=O)N2CC(Oc3ccc(-c4noc(-c5ccccc5)n4)cc3)C2)s1` as the compound, how does the Potency read?
Answer: inconclusive: 1.78 µM [inhibitor, partial curve]

Question: Which Potency does the source give for `Cc1c(C(=O)OC2CCC(C)CC2)[nH]c2c1C(=O)CC(c1ccc(N(C)C)cc1)C2` (configuration not stated) here?
Answer: inconclusive: 3.98 µM [inhibitor, full curve, poor fit]

Question: Which Potency does the source give for `COc1ccc(S(=O)(=O)c2c(C(=O)c3ccc(C)c(C)c3)cnc3ccc(C)cc23)cc1` here?
Answer: inconclusive: 12.6 µM [inhibitor, single point]

Question: Which Potency does the source give for `COc1ccc(C(=O)N2CCCC(c3nn(-c4ccc(OC)cc4)c(=O)[nH]3)C2)cc1` (configuration not stated) here?
Answer: inconclusive: 10 µM [inhibitor, partial curve, poor fit]

Question: For `CCC(CC)CN1CC2(CCN(C(=O)c3cn4cccnc4n3)CC2)OC1=O`, which “activity, negative = inhibition” value is on record?
Answer: inactive: -12.1%

Question: Which “activity, negative = inhibition” value does the source give for `O=C(Cn1cc(SCc2cccc(Cl)c2)c2ccccc21)N1CCCCC1` here?
Answer: inactive: -16.6%

Question: For `CC(C)S(=O)(=O)N1CCC(N2CC(OCC3CC3)C23CCCCC3)CC1` (configuration not stated), which Potency is on record?
Answer: inconclusive: 0.891 µM [inhibitor, full curve, poor fit]

Question: With `O=C(NCCc1ccccc1)c1ccc2c(c1)N(Cc1ccc(F)cc1Cl)C(=O)CS2` as the compound, how does the Potency read?
Answer: inconclusive: 17.8 µM [inhibitor, single point]

Question: Which Potency does the source give for `Cc1ccc(NC(=O)N2CCC3(CC2)Oc2ccccc2C(=O)N3Cc2ccc(F)cc2)cc1` here?
Answer: active: 11.2 µM

Question: Which “outcome” value does the source give for `Cc1cccn2c(CN(C)CCc3cnn(C)c3)c(C(=O)N(C)CCc3ccccc3)nc12` here?
Answer: inactive

Question: Which Potency does the source give for `CCNC(=O)c1ccc2c(c1)sc1nc(-c3cccc(OC)c3)cn12` here?
Answer: inconclusive: 10 µM [inhibitor, single point]

Question: Which “activity, negative = inhibition” value does the source give for `Cn1ccnc1CN1C(=O)CO[C@H]2CN(C(=O)c3ccccn3)C[C@H]21` here?
Answer: inactive: 26.7% [at 44.1 µM]

Question: Which “outcome” value does the source give for `CCc1noc(-c2cn(C3CCN(C(=O)c4ccc(C)s4)CC3)nn2)n1` here?
Answer: inactive

Question: For `C[C@]1(O)CCN(C(=O)CC(c2ccccc2)c2ccccc2)C[C@@H]1O`, which “activity, negative = inhibition” value is on record?
Answer: inactive: -33%

Question: For `O=C(c1cnccn1)N1CCC2(CC1)CC(N(Cc1ccccc1)C1CC1)CCO2` (configuration not stated), which Potency is on record?
Answer: inconclusive: 6.31 µM [inhibitor, partial curve, poor fit]

Question: For `COc1ccc(C2(c3nc(C4CCOC4)no3)CCCC2)cc1OC` (configuration not stated), which Potency is on record?
Answer: inconclusive: 17.8 µM [inhibitor, single point]

Question: For `COc1ccc(C)cc1NC(=O)CCc1ccc2c(c1)CN(C(=O)C1CC1)CCO2`, which Potency is on record?
Answer: inconclusive: 17.8 µM [inhibitor, single point]

Question: Which “activity, negative = inhibition” value does the source give for `Cc1cnc(C(=O)NC2C[C@H]3CC[C@@H](C2)N3C(=O)CC2CCCCC2)cn1` (some centres not stated) here?
Answer: inactive: -24.9%

Question: For `COc1ccccc1OCCNC(=O)c1ccc(Cn2ccn3nc4c(c3c2=O)CCCC4)cc1`, which Potency is on record?
Answer: inconclusive: 4.47 µM [inhibitor, partial curve]

Question: Which Potency does the source give for `CN(c1nnc(NC(=O)Nc2ccccc2C(F)(F)F)s1)C1CCCCC1` here?
Answer: inconclusive: 5.62 µM [inhibitor, single point]

Question: Which Potency does the source give for `COC(=O)c1cc(NC(=O)CC2C(=O)OCCN2Cc2ccccc2)cc(C(=O)OC)c1` (configuration not stated) here?
Answer: inconclusive: 0.0794 µM [inhibitor, full curve]

Question: For `COc1cccc(CN2CCC3(CC2)CC(O)CCO3)c1OC` (configuration not stated), which “activity, negative = inhibition” value is on record?
Answer: inactive: -13.1%

Question: With `CC(c1ccon1)N(C)C(=O)c1csc2nc(-c3cccc(C(F)(F)F)c3)cn12` (configuration not stated) as the compound, how does the Potency read?
Answer: inconclusive: 7.94 µM [inhibitor, partial curve]

Question: For `CC(C)(C)OC(=O)N1CCC(c2c(C(=O)N3CCN(C(=O)c4ccco4)CC3)cnn2-c2cccc(Cl)c2)CC1`, which Potency is on record?
Answer: active: 10 µM

Question: With `CCC(NC(=O)C1CCCN(c2cnc3nccnc3c2)C1)c1ccc(OC)cc1` (configuration not stated) as the compound, how does the “activity, negative = inhibition” value read?
Answer: inactive: -1.34%

Question: Which Potency does the source give for `CC(=O)c1ccc(NC(=O)c2nc(-c3ccc(Cl)cc3)n3c2CCCCC3)cc1` here?
Answer: inconclusive: 17.8 µM [inhibitor, single point]

Question: For `Cc1ccc(-n2cccc2CC(=O)N2CCOCC2)cc1`, which Potency is on record?
Answer: inconclusive: 20 µM [inhibitor, single point]

Question: For `Cc1cccc(OCCc2noc(C3CCCCN3S(=O)(=O)c3cn(C)cn3)n2)c1` (configuration not stated), which Potency is on record?
Answer: inconclusive: 17.8 µM [inhibitor, single point]

Question: For `CCCCOc1ccc(-c2nc(C3CC(=O)N(c4ccc(F)cc4)C3)no2)cc1` (configuration not stated), which Potency is on record?
Answer: inconclusive: 3.16 µM [inhibitor, single point]

Question: With `Cc1ccc2c(C(=O)Nc3ccc(N4CCOCC4)cc3)cc(NC(=O)C3CCC3)cc2n1` as the compound, how does the Potency read?
Answer: inconclusive: 8.91 µM [inhibitor, partial curve]

Question: Which Potency does the source give for `O=C1[C@@H]2C[C@@H](O)CN2C2(CN(Cc3ccc(F)cc3)C2)C(=O)N1Cc1ccccc1` here?
Answer: inconclusive: 31.6 µM [inhibitor, single point]

Question: Which Potency does the source give for `CCOc1ccc(NC(=O)Cn2c(=O)n(Cc3nc(-c4ccccc4)no3)c(=O)c3cc4c(cc32)OCO4)cc1` here?
Answer: inconclusive: 17.8 µM [inhibitor, single point]

Question: For `COc1ccc(C(=O)N[C@@H]2CN(C(=O)NC(C)C)CCC[C@H]2O)cc1`, which Potency is on record?
Answer: inconclusive: 12.6 µM [inhibitor, single point]

Question: For `CCCN(CC1CCOC1)C(=O)Nc1ccc(F)c(Cl)c1` (configuration not stated), which activity, negative = inhibition is on record?
Answer: inactive: 14.9% [at 5.79 µM]

Question: With `Cn1nc(C2CCN(C(=O)Cn3nnnc3N)CC2)n(-c2ccccc2)c1=O` as the compound, how does the “activity, negative = inhibition” value read?
Answer: inactive: -4.77%

Question: Which Potency does the source give for `CSc1ccccc1C(=O)N(C)C1CCCN(CCCc2ccccc2)C1` (configuration not stated) here?
Answer: inconclusive: 10 µM [inhibitor, single point]

Question: With `Cc1ccc(-c2nc3nc(C)cc(C)n3c2Nc2ccc3c(c2)OCCO3)cc1` as the compound, how does the Potency read?
Answer: inconclusive: 17.8 µM [inhibitor, single point]

Question: Which “activity, negative = inhibition” value does the source give for `O=C([C@@H]1C[C@H](F)CN1C(=O)CCCc1ccccc1)N1CCCCC1` here?
Answer: inactive: 27.5%

Question: For `CC(=O)N1CCc2cc(Br)cc(S(=O)(=O)N3CCC(C)CC3)c21`, which Potency is on record?
Answer: inconclusive: 7.94 µM [inhibitor, partial curve, poor fit]
